# From PubChem BioAssay AID1030 (National Center for Advancing Translational Sciences (NCATS), 2008)
# Out of some 220,000 compounds screened, about 16,000 (7.3%) were called active. The shares of active, inactive and inconclusive entries below differ from those in the screen. The call rests on the fitted dose curve; in most records, active means well fitted inhibition curve with a large enough effect (not every such curve was filed as active); inconclusive means small, poorly fitted or top-dose-only effect, or another doubt; inactive means no such curve, though single readings can be large or run the other way. Potencies of inconclusive entries are left out as doubtful fits.
# Biological target: Aldehyde dehydrogenase 1A1 (Homo sapiens) (UniProt P00352)
# Assay: qHTS Assay for Inhibitors of Aldehyde Dehydrogenase 1 (ALDH1A1)
# Settings: Purified ALDH1A1, NADH fluorescence, propionaldehyde substrate; series mostly up to 75.3 µM
# Potency means the concentration at half of the fitted maximal effect; tags describe the fitted curve by direction and shape.
# Sequence of UniProt P00352 (P00352 whole entry, looked up): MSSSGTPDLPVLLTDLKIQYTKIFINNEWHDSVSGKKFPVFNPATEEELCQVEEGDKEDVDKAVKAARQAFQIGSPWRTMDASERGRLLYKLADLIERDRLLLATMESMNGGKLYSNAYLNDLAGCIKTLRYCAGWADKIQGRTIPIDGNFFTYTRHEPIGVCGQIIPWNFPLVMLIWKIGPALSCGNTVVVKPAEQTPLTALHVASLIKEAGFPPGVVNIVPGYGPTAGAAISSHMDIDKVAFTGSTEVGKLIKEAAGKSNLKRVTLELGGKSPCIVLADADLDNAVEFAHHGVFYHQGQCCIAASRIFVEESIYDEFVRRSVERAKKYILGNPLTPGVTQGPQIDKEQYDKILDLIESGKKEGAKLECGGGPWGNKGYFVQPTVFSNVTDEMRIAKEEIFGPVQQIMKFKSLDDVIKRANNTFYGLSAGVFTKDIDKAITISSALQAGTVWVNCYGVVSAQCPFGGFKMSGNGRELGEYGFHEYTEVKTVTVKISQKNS
row,Structure (SMILES),Potency
1,CCOc1ccc(NC(=O)COC(=O)c2ncc(Cl)c(Cl)c2Cl)cc1,"inconclusive [inhibitor, single point]"
2,Cc1csc2ncc(C(=O)N(Cc3ccccc3)c3ccccn3)c(=O)n12,"inconclusive [inhibitor, single point]"
3,Cc1cc(C)nc(SCc2ccc(C(=O)N/N=C/c3ccccc3C(=O)O)cc2)n1,"inconclusive [inhibitor, full curve]"
4,CCOC(=O)c1[nH]nc(-c2cc(CC)c(O)cc2O)c1-c1cscn1,active: 8.91 µM
5,COc1ccc(C(=O)N2CCC(C(=O)c3ccc(F)cc3)CC2)cc1,"inconclusive [inhibitor, single point]"
6,C=CCNC(=S)Nc1ccc2cn[nH]c2c1,"inconclusive [inhibitor, single point]"
7,Cn1c(=O)[nH]c(=O)c2c1nc(Sc1nc3ccccc3s1)n2Cc1ccccc1,active: 15.8 µM
8,CC(=O)c1ccc2c(ccc3ccccc32)c1,"inconclusive [inhibitor, partial curve]"
9,CCOc1ccc(NC(=S)NC(C)c2cccs2)cc1 (stereo not given),inactive
10,CCCCN(CC)CCCNC(=O)CN1C(=O)CSc2ccc(S(=O)(=O)N3CCOCC3)cc21,inactive
11,Cc1cccc(/C=C/c2nc3ccccc3c(=O)n2Cc2ccccc2)c1,"inconclusive [inhibitor, single point]"
12,Cc1ccccc1-n1c(SCC(=O)c2cc(C)n(C)c2C)nnc1-c1cccnc1,"inconclusive [inhibitor, partial curve]"
13,Cc1cc(NC(=O)CCN2C(=O)C3C4CCC(C4)C3C2=O)c(C)cc1Br (stereo not given),"inconclusive [inhibitor, partial curve]"
14,c1ccc2sc(SSc3nc4ccccc4s3)nc2c1,active: 0.251 µM
15,COc1ccc(/C=C/C(=O)c2ccoc2)cc1,"inconclusive [inhibitor, single point]"
16,CC(C)c1ccc(-c2nc3c([nH]2)c(=O)n(C)c(=O)n3C)cc1,"inconclusive [inhibitor, partial curve]"
17,CCCc1nc(SCC(N)=O)[nH]c(=O)c1CC,inactive
18,CSc1ccc(NC(=O)NCCCN2CCN(c3ccccc3F)CC2)cc1,"inconclusive [inhibitor, single point]"
19,CC1CCCCC1NC(=O)CN1CCC(O)(c2ccc3c(c2)OCO3)CC1 (stereo not given),"inconclusive [inhibitor, single point]"
20,Cc1scc(C(=O)NNC(=S)NCC2CCCO2)c1-c1ccccc1 (stereo not given),inactive
21,Cc1nc(NS(=O)(=O)c2ccccc2)sc1NC(=O)Nc1ccccc1,inactive
22,CC(=O)Nc1sc2c(c1C(c1cccc(Cl)c1)N1CCN(CCO)CC1)CCCC2 (stereo not given),inactive
23,COc1cc2c(cc1OC)-c1cc(N3CCCc4ccccc43)nc(=O)n1CC2,active: 11.2 µM
24,Cc1noc(C)c1COc1cccc(C(=O)Nc2ccc3c(c2)OCO3)c1,"inconclusive [inhibitor, partial curve]"

row,Structure (SMILES),Potency
1,CCn1c(-c2csc3c2CCCC3)n[nH]c1=S,"inconclusive [inhibitor, partial curve]"
2,C=CCn1c(SCC(=O)NCCOC)nnc1-c1cc2c(s1)CCC(CC)C2 (stereo not given),"inconclusive [inhibitor, partial curve]"
3,CCOC(=O)C1C(=O)NC(c2ccccc2)=NC1c1cccc(Br)c1 (stereo not given),"inconclusive [inhibitor, single point]"
4,CCNc1nc(CSc2ccccc2)nc2sc(C)c(C)c12,"inconclusive [inhibitor, partial curve]"
5,CCOC(=O)N1CCC(NC(=O)c2ccc(CS(=O)(=O)c3ccc(OC)cc3)o2)CC1,"inconclusive [inhibitor, single point]"
6,O=C(O)CNC(=O)c1ccccc1Br,inactive
7,COC(=O)Nc1nc2ccc(C(=O)c3ccccc3)cc2[nH]1,inactive
8,COc1ccc(-c2ocnc2C(=O)Nc2ccccc2N2CCCCC2)cc1,"inconclusive [inhibitor, single point]"
9,Cc1ccc(C(=O)N2CCN(c3ccc([N+](=O)[O-])c(NCc4ccco4)c3)CC2)cc1,"inconclusive [inhibitor, partial curve]"
10,Cn1c(OCc2ccco2)nc2c1c(=O)n(Cc1ccc(Cl)c(Cl)c1)c(=O)n2C,active: 25.1 µM
11,CCOC(=O)c1nnn(-c2nonc2N)c1CN(C)C1CCCCC1,active: 2 µM
12,COc1ccc(S(=O)(=O)N2CCN(Cc3ccc4c(c3)OCO4)CC2)c2ccccc12,"inconclusive [inhibitor, partial curve]"
13,c1ccc(OCCn2c(-c3ccco3)nc3ccccc32)cc1,"inconclusive [inhibitor, single point]"
14,COc1cccc(-c2cncnc2NCc2cccc(C)c2)c1,"inconclusive [inhibitor, partial curve, poor fit]"
15,CCCCn1nnnc1SCC(=O)Nc1ccc(N(C)C)cc1,active: 25.1 µM
16,COc1ccc(C2OC(=O)CC2C(=O)NCc2ccccc2Cl)cc1OC (stereo not given),inactive
17,CCC(=O)N1CCCc2cc(S(=O)(=O)N3CCN(c4ccccc4F)CC3)ccc21,active: 14.1 µM
18,CCOc1ccc(NC(=O)Nc2ccc3nsnc3c2)cc1,inactive
19,O=C(c1cc2c(s1)CCCC2)N1CCN(S(=O)(=O)c2ccccc2C(F)(F)F)CC1,"inconclusive [inhibitor, single point]"
20,COc1cc(/C=C(\NC(=O)c2ccccc2)C(=O)Nc2cccc(O)c2)c([N+](=O)[O-])cc1OC,inactive
21,Cn1nnc2cc(C(=O)N3CCC(c4ccccc4)C3)ccc21 (stereo not given),inactive
22,CC(C)OC(=O)c1c(NS(=O)(=O)c2ccccc2)sc2c1CCCC2,"inconclusive [inhibitor, single point]"
23,Cc1ccc(Cn2cc(SCC(=O)Nc3nccs3)c3ccccc32)cc1,"inconclusive [inhibitor, single point]"
24,O=c1oc2c(CN3CCCCC3)c(O)ccc2cc1-c1nc2ccccc2[nH]1,"inconclusive [inhibitor, partial curve]"

row,Structure (SMILES),Potency
1,N=C(N)SCCc1ccc(OCc2ccc([N+](=O)[O-])cc2)cc1,"inconclusive [inhibitor, single point]"
2,[N-]=C=C1C(=S)NC(=O)[C@H]([n+]2ccccc2)[C@H]1c1ccc(Cl)cc1,active: 14.1 µM
3,COc1cc(CNCCc2ccccc2)ccc1OCC(=O)NC(C)(C)C,"inconclusive [inhibitor, single point]"
4,CCN(CC)CCN1C(=O)C(=O)/C(=C(/O)c2c(C)[nH]c(C(=O)OC)c2C)C1c1cccc(OC)c1 (stereo not given),"inconclusive [inhibitor, single point]"
5,Cc1nc2cc(N3CCOCC3)c(NC(=O)C3CC3)cc2c(=O)n1Cc1ccccc1,"inconclusive [inhibitor, single point]"
6,N#Cc1c(Nc2ccc(F)cc2)sc(C(=O)c2ccccc2)c1N,"inconclusive [inhibitor, partial curve]"
7,Cc1cc(NC(=O)CSc2ccc(-c3nc4cc(C)c(C)cc4[nH]3)cn2)no1,"inconclusive [inhibitor, partial curve]"
8,Cc1ccc(NC(=O)c2cccc(Cl)c2)nc1,"inconclusive [inhibitor, single point]"
9,CSc1nc2sc3c(c2c(=O)[nH]1)CCC3,"inconclusive [inhibitor, partial curve]"
10,Cc1ccc(NN=C2c3ccccc3-c3ccccc32)cc1,"inconclusive [inhibitor, single point]"
11,FC(F)(F)c1ccc(N2CCOCC2)c(Nc2nc3ccccc3n3cnnc23)c1,"inconclusive [inhibitor, partial curve]"
12,Cc1ccc(-n2c(=O)c(C#N)cc3c(=O)n4ccccc4nc32)cc1C,"inconclusive [inhibitor, partial curve]"
13,O=C(OCC(=O)N(C1CCCCC1)C1CCCCC1)c1ccncc1,"inconclusive [inhibitor, single point]"
14,CCC(Sc1n[nH]c(=O)[nH]c1=O)C(=O)OCc1ccccc1 (stereo not given),"inconclusive [inhibitor, single point]"
15,COc1cc(OC)cc(C(=O)N[C@H](C(=O)OCC(=O)c2ccc3c(c2)NC(=O)CO3)C(C)C)c1,active: 22.4 µM
16,CC(C)C(O)P(=O)(OCc1ccccc1)c1ccc(N(C)C)cc1 (stereo not given),"inconclusive [inhibitor, partial curve]"
17,COc1ccc(CN2CCC(N(CCc3ccccc3)Cc3ccccc3)CC2)c(OC)c1,"inconclusive [inhibitor, single point]"
18,O=C(O)C(Cc1c[nH]c2ccccc12)N1C(=O)C2C3c4ccccc4C(c4ccccc43)C2C1=O (stereo not given),inactive
19,COc1ccc(OC)c(C(=O)CSc2nc3ncccc3[nH]2)c1,"inconclusive [inhibitor, single point]"
20,COc1cc(COc2ccc3c(C)c(Cc4ccccc4)c(=O)oc3c2C)cc(OC)c1OC,"inconclusive [inhibitor, partial curve]"
21,CCC(C)NCCCOc1ccc(C)cc1OC (stereo not given),inactive
22,CCS(=O)(=O)C1=NN2C(=N)/C(=C\c3ccc(SCc4ccco4)o3)C(=O)N=C2S1,active: 1.78 µM
